# Results as given in the supplement of paper PMC8728848.
# This is one part of the list.
# B1: LecB LY19 (Pseudomonas aeruginosa) (protein)
# chain: MATQGVFTLPANTQFGVTAFANSAGTQTVNVQVNNETVATFTGQSTNNGIIGSKVLNSGGGGKVQILVSVNGRSSDLVSAQVILANELNFALVGSEDSTDNDYNDAVVVINWPLG
# Experiments:
# Test in all cases: glycan array binding signal (z-score within array); higher = stronger binding
# Details in all cases: glycan notation: IUPAC condensed, linker removed
# GlcNAc(b1-3)Gal(b1-4)Glc = target: GlcNAc(b1-3)Gal(b1-4)Glc
# Method in brief: (§1)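 From the Consortium for Functional Glycomics database, 3228 arrays were curated, keeping only those whose protein sequence was available. Binding is given as a within-array Z-score averaged across arrays sharing a protein sequence and across linkers. Negative Z-scores can be read as non-binding.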
# [1] = target: GlcNAc(b1-3)Gal(b1-4)GlcNAc
# Method in brief: as §1
# [2] = target: GlcNAc(b1-3)Gal(b1-4)GlcNAc(b1-2)Man(a1-3)[GlcNAc(b1-3)Gal(b1-4)GlcNAc(b1-2)Man(a1-6)]Man(b1-4)GlcNAc(b1-4)GlcNAc
# Method in brief: as §1
# [3] = target: GlcNAc(b1-3)Gal(b1-4)GlcNAc(b1-2)Man(a1-3)[GlcNAc(b1-3)Gal(b1-4)GlcNAc(b1-2)Man(a1-6)]Man(b1-4)GlcNAc(b1-4)[Fuc(a1-6)]GlcNAc
# Method in brief: as §1
# [4] = target: GlcNAc(b1-3)Gal(b1-4)GlcNAc(b1-2)[GlcNAc(b1-3)Gal(b1-4)GlcNAc(b1-6)]Man(a1-6)[GlcNAc(b1-3)Gal(b1-4)GlcNAc(b1-2)Man(a1-3)]Man(b1-4)GlcNAc(b1-4)GlcNAc
# Method in brief: as §1
# [5] = target: GlcNAc(b1-3)Gal(b1-4)GlcNAc(b1-3)Gal(b1-4)GlcNAc
# Method in brief: as §1
# [6] = target: GlcNAc(b1-3)Gal(b1-4)GlcNAc(b1-3)Gal(b1-4)GlcNAc(b1-2)Man(a1-3)[GlcNAc(b1-3)Gal(b1-4)GlcNAc(b1-3)Gal(b1-4)GlcNAc(b1-2)Man(a1-6)]Man(b1-4)GlcNAc(b1-4)GlcNAc
# Method in brief: as §1
# [7] = target: GlcNAc(b1-3)Gal(b1-4)GlcNAc(b1-3)Gal(b1-4)GlcNAc(b1-2)Man(a1-3)[GlcNAc(b1-3)Gal(b1-4)GlcNAc(b1-3)Gal(b1-4)GlcNAc(b1-2)Man(a1-6)]Man(b1-4)GlcNAc(b1-4)[Fuc(a1-6)]GlcNAc
# Method in brief: as §1
# [8] = target: GlcNAc(b1-3)Gal(b1-4)GlcNAc(b1-3)Gal(b1-4)GlcNAc(b1-2)[GlcNAc(b1-3)Gal(b1-4)GlcNAc(b1-3)Gal(b1-4)GlcNAc(b1-6)]Man(a1-6)[GlcNAc(b1-3)Gal(b1-4)GlcNAc(b1-3)Gal(b1-4)GlcNAc(b1-2)Man(a1-3)]Man(b1-4)GlcNAc(b1-4)[Fuc(a1-6)]GlcNAc
# Method in brief: as §1
# [9] = target: GlcNAc(b1-3)Gal(b1-4)GlcNAc(b1-3)Gal(b1-4)GlcNAc(b1-3)Gal(b1-4)GlcNAc(b1-2)Man(a1-3)[GlcNAc(b1-3)Gal(b1-4)GlcNAc(b1-3)Gal(b1-4)GlcNAc(b1-3)Gal(b1-4)GlcNAc(b1-2)Man(a1-6)]Man(b1-4)GlcNAc(b1-4)GlcNAc
# Method in brief: as §1
# [10] = target: GlcNAc(b1-3)Gal(b1-4)GlcNAc(b1-3)Gal(b1-4)GlcNAc(b1-3)Gal(b1-4)GlcNAc(b1-2)Man(a1-3)[GlcNAc(b1-3)Gal(b1-4)GlcNAc(b1-3)Gal(b1-4)GlcNAc(b1-3)Gal(b1-4)GlcNAc(b1-2)Man(a1-6)]Man(b1-4)GlcNAc(b1-4)[Fuc(a1-6)]GlcNAc
# Method in brief: as §1
# [11] = target: GlcNAc(b1-3)Gal(b1-4)GlcNAc(b1-3)Gal(b1-4)GlcNAc(b1-3)Gal(b1-4)GlcNAc(b1-2)[GlcNAc(b1-3)Gal(b1-4)GlcNAc(b1-3)Gal(b1-4)GlcNAc(b1-3)Gal(b1-4)GlcNAc(b1-6)]Man(a1-6)[GlcNAc(b1-3)Gal(b1-4)GlcNAc(b1-3)Gal(b1-4)GlcNAc(b1-3)Gal(b1-4)GlcNAc(b1-2)Man(a1-3)]Man(b1-4)GlcNAc(b1-4)[Fuc(a1-6)]GlcNAc
# Method in brief: as §1
# [12] = target: GlcNAc(b1-3)Gal(b1-4)GlcNAc(b1-3)Gal(b1-4)GlcNAc(b1-3)Gal(b1-4)GlcNAc(b1-3)Gal(b1-4)GlcNAc(b1-2)Man(a1-3)[GlcNAc(b1-3)Gal(b1-4)GlcNAc(b1-3)Gal(b1-4)GlcNAc(b1-3)Gal(b1-4)GlcNAc(b1-3)Gal(b1-4)GlcNAc(b1-2)Man(a1-6)]Man(b1-4)GlcNAc(b1-4)GlcNAc
# Method in brief: as §1
# [13] = target: GlcNAc(b1-3)Gal(b1-4)GlcNAc(b1-3)Gal(b1-4)GlcNAc(b1-3)Gal(b1-4)GlcNAc(b1-3)Gal(b1-4)GlcNAc(b1-2)Man(a1-3)[GlcNAc(b1-3)Gal(b1-4)GlcNAc(b1-3)Gal(b1-4)GlcNAc(b1-3)Gal(b1-4)GlcNAc(b1-3)Gal(b1-4)GlcNAc(b1-2)Man(a1-6)]Man(b1-4)GlcNAc(b1-4)[Fuc(a1-6)]GlcNAc
# Method in brief: as §1
# [14] = target: GlcNAc(b1-3)Gal(b1-4)GlcNAc(b1-3)Gal(b1-4)GlcNAc(b1-3)Gal(b1-4)GlcNAc(b1-3)Gal(b1-4)GlcNAc(b1-2)[GlcNAc(b1-3)Gal(b1-4)GlcNAc(b1-3)Gal(b1-4)GlcNAc(b1-3)Gal(b1-4)GlcNAc(b1-3)Gal(b1-4)GlcNAc(b1-6)]Man(a1-6)[GlcNAc(b1-3)Gal(b1-4)GlcNAc(b1-3)Gal(b1-4)GlcNAc(b1-3)Gal(b1-4)GlcNAc(b1-3)Gal(b1-4)GlcNAc(b1-2)Man(a1-3)]Man(b1-4)GlcNAc(b1-4)[Fuc(a1-6)]GlcNAc
# Method in brief: as §1
# [15] = target: GlcNAc(b1-3)Gal(b1-4)GlcNAc(b1-3)Gal(b1-4)GlcNAc(b1-3)GalNAc
# Method in brief: as §1
# [16] = target: GlcNAc(b1-3)Gal(b1-4)GlcNAc(b1-3)GalNAc
# Method in brief: as §1
# [17] = target: GlcNAc(b1-3)Gal(b1-4)GlcNAc(b1-3)[GlcNAc(b1-3)Gal(b1-4)GlcNAc(b1-3)]GalNAc
# Method in brief: as §1
# [18] = target: GlcNAc(b1-3)Gal(b1-4)GlcNAc(b1-6)[Gal(b1-3)]GalNAc
# Method in brief: as §1
# [19] = target: GlcNAc(b1-3)Gal(b1-4)GlcNAc(b1-6)[GlcNAc(b1-3)Gal(b1-3)]GalNAc
# Method in brief: as §1
# [20] = target: GlcNAc(b1-3)Gal(b1-4)GlcNAc(b1-6)[GlcNAc(b1-3)]Gal(b1-4)GlcNAc
# Method in brief: as §1
# GlcNAc(b1-3)GalNAc = target: GlcNAc(b1-3)GalNAc
# Method in brief: as §1
# GlcNAc(b1-3)Man = target: GlcNAc(b1-3)Man
# Method in brief: as §1
# [21] = target: GlcNAc(b1-3)[GlcNAc(b1-4)][GlcNAc(b1-6)]GlcNAc
# Method in brief: as §1
# [22] = target: GlcNAc(b1-3)[GlcNAc(b1-6)]Gal(b1-4)GlcNAc
# Method in brief: as §1
# [23] = target: GlcNAc(b1-3)[GlcNAc(b1-6)]GalNAc
# Method in brief: as §1
# [24] = target: GlcNAc(b1-4)Gal(b1-4)GlcNAc
# Method in brief: as §1
# GlcNAc(b1-4)GlcNAc = target: GlcNAc(b1-4)GlcNAc
# Method in brief: as §1
# [25] = target: GlcNAc(b1-4)GlcNAc(b1-4)GlcNAc
# Method in brief: as §1
# [26] = target: GlcNAc(b1-4)GlcNAc(b1-4)GlcNAc(b1-4)GlcNAc(b1-4)GlcNAc
# Method in brief: as §1
# [27] = target: GlcNAc(b1-4)GlcNAc(b1-4)GlcNAc(b1-4)GlcNAc(b1-4)GlcNAc(b1-4)GlcNAc
# Method in brief: as §1
# [28] = target: GlcNAc(b1-4)[GlcNAc(b1-6)]GalNAc
# Method in brief: as §1
# [29] = target: GlcNAc(b1-6)Gal(b1-4)GlcNAc
# Method in brief: as §1
# GlcNAc(b1-6)GalNAc = target: GlcNAc(b1-6)GalNAc
# Method in brief: as §1
# [30] = target: GlcNAc6S(b1-3)Gal(b1-4)GlcNAc
# Method in brief: as §1
# Kdn(a2-3)Gal(b1-3)GalNAc = target: Kdn(a2-3)Gal(b1-3)GalNAc
# Method in brief: as §1
# Kdn(a2-3)Gal(b1-3)GlcNAc = target: Kdn(a2-3)Gal(b1-3)GlcNAc
# Method in brief: as §1
# Kdn(a2-3)Gal(b1-4)Glc = target: Kdn(a2-3)Gal(b1-4)Glc
# Method in brief: as §1
# Kdn(a2-3)Gal(b1-4)GlcNAc = target: Kdn(a2-3)Gal(b1-4)GlcNAc
# Method in brief: as §1
# [31] = target: Kdn(a2-3)Gal(b1-4)[Fuc(a1-3)]GlcNAc
# Method in brief: as §1
# Kdn(a2-6)Gal(b1-4)GlcNAc = target: Kdn(a2-6)Gal(b1-4)GlcNAc
# Method in brief: as §1
# [32] = target: Man(a1-2)Man(a1-2)Man(a1-3)Man
# Method in brief: as §1
# [33] = target: Man(a1-2)Man(a1-2)Man(a1-6)[Man(a1-3)]Man
# Method in brief: as §1
# Man(a1-2)Man(a1-3)Man = target: Man(a1-2)Man(a1-3)Man
# Method in brief: as §1
# [34] = target: Man(a1-2)Man(a1-3)[Man(a1-2)Man(a1-6)]Man
# Method in brief: as §1
binder,measurement,setting,value
B1,glycan array binding signal (z-score),GlcNAc(b1-3)Gal(b1-4)Glc,-0.553
same,glycan array binding signal (z-score),[1],-0.558
same,glycan array binding signal (z-score),[2],-0.538
same,glycan array binding signal (z-score),[3],0.753
same,glycan array binding signal (z-score),[4],-0.401
same,glycan array binding signal (z-score),[5],-0.552
same,glycan array binding signal (z-score),[6],-0.529
same,glycan array binding signal (z-score),[7],0.644
same,glycan array binding signal (z-score),[8],0.123
same,glycan array binding signal (z-score),[9],-0.489
same,glycan array binding signal (z-score),[10],0.623
same,glycan array binding signal (z-score),[11],0.032
same,glycan array binding signal (z-score),[12],-0.489
same,glycan array binding signal (z-score),[13],0.887
same,glycan array binding signal (z-score),[14],0.196
same,glycan array binding signal (z-score),[15],-0.542
same,glycan array binding signal (z-score),[16],-0.556
same,glycan array binding signal (z-score),[17],-0.531
same,glycan array binding signal (z-score),[18],-0.558
same,glycan array binding signal (z-score),[19],-0.549
same,glycan array binding signal (z-score),[20],-0.549
same,glycan array binding signal (z-score),GlcNAc(b1-3)GalNAc,-0.547
same,glycan array binding signal (z-score),GlcNAc(b1-3)Man,-0.482
same,glycan array binding signal (z-score),[21],-0.544
same,glycan array binding signal (z-score),[22],-0.551
same,glycan array binding signal (z-score),[23],-0.553
same,glycan array binding signal (z-score),[24],-0.541
same,glycan array binding signal (z-score),GlcNAc(b1-4)GlcNAc,-0.543
same,glycan array binding signal (z-score),[25],-0.549
same,glycan array binding signal (z-score),[26],-0.544
same,glycan array binding signal (z-score),[27],-0.551
same,glycan array binding signal (z-score),[28],-0.55
same,glycan array binding signal (z-score),[29],-0.493
same,glycan array binding signal (z-score),GlcNAc(b1-6)GalNAc,-0.547
same,glycan array binding signal (z-score),[30],-0.548
same,glycan array binding signal (z-score),Kdn(a2-3)Gal(b1-3)GalNAc,-0.368
same,glycan array binding signal (z-score),Kdn(a2-3)Gal(b1-3)GlcNAc,-0.551
same,glycan array binding signal (z-score),Kdn(a2-3)Gal(b1-4)Glc,-0.525
same,glycan array binding signal (z-score),Kdn(a2-3)Gal(b1-4)GlcNAc,-0.555
same,glycan array binding signal (z-score),[31],-0.124
same,glycan array binding signal (z-score),Kdn(a2-6)Gal(b1-4)GlcNAc,-0.547
same,glycan array binding signal (z-score),[32],0.768
same,glycan array binding signal (z-score),[33],1.7
same,glycan array binding signal (z-score),Man(a1-2)Man(a1-3)Man,0.658
same,glycan array binding signal (z-score),[34],1.94
